Source: PubChem BioAssay AID1030 (National Center for Advancing Translational Sciences (NCATS), 2008)
Out of some 220,000 compounds screened, about 16,000 (7.3%) were called active. The inconclusive results got no clear call from the source; some entries with a clear call stand among them for comparison. Calls come from the whole dose curve; as a rule, active = well fitted inhibition curve with a large enough effect (not every such curve was filed as active); inconclusive = small, poorly fitted or top-dose-only effect, or another doubt; inactive = no such curve, though single readings can be large or run the other way. No potency is given beside an inconclusive call; the fits are too rough.

target: Aldehyde dehydrogenase 1A1 (Homo sapiens) (UniProt P00352); assay: qHTS Assay for Inhibitors of Aldehyde Dehydrogenase 1 (ALDH1A1); settings: Purified ALDH1A1, NADH fluorescence, propionaldehyde substrate; series mostly up to 75.3 µM
Potency is the fitted concentration of half-maximal effect; tags give direction and shape of the fitted curve.

Chain of UniProt P00352 (P00352 whole entry, looked up): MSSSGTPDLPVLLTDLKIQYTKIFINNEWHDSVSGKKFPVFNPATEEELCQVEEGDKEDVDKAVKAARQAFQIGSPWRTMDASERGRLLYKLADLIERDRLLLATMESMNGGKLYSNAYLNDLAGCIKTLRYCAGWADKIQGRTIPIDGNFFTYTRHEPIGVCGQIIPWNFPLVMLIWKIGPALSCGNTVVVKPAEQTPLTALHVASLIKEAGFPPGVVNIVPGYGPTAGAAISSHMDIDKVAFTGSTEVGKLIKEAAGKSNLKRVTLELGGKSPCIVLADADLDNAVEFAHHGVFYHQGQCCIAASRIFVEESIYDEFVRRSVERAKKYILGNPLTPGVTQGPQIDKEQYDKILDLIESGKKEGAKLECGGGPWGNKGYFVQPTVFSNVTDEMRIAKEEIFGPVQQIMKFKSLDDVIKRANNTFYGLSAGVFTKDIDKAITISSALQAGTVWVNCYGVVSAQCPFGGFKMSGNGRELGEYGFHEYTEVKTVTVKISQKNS

**Q.** `NS(=O)(=O)c1ccc(CCNC(=O)CSc2nc3ccsc3c(=O)n2C2CC2)cc1` was tested. Which Potency did it give?
**A.** inconclusive [inhibitor, single point]

**Q.** With `Cc1cc(NCC2CCCO2)n2c(nc3ccccc32)c1C#N` (stereo not drawn) as the compound, how does the Potency read?
**A.** inconclusive [inhibitor, partial curve]

**Q.** For `CCn1c(COc2ccc(Cl)cc2)nnc1SC1CCc2ccccc2C1=O` (stereo not drawn), which Potency is on record?
**A.** inconclusive [inhibitor, single point]

**Q.** For `O=C(c1ccco1)N1CCN(c2ncnc3c2[nH]c2ccc(Br)cc23)CC1`, which Potency is on record?
**A.** inconclusive [inhibitor, single point]

**Q.** How did the Potency turn out when `COc1ccc(/C=N/N=C2\SCC(=O)N2c2c(C)n(C)n(-c3ccccc3)c2=O)cc1OC` was run?
**A.** inactive

**Q.** With `CC1CCN(c2ncnc3c2cnn3-c2ccccc2)CC1` as the compound, how does the Potency read?
**A.** inconclusive [inhibitor, partial curve]

**Q.** For `O=S(=O)(c1ccc(N2CCC(c3ccc(Cl)cc3)=N2)cc1)N(CCO)CCO`, which Potency is on record?
**A.** inconclusive [inhibitor, partial curve]

**Q.** With `CCNC(=S)Nc1cc(OCC)c(NC(=O)c2ccco2)cc1OCC` as the compound, how does the Potency read?
**A.** inconclusive [inhibitor, single point]

**Q.** How did the Potency turn out when `CCn1c(=O)c2cc(C(=O)N3CCOCC3)sc2c2ccccc21` was run?
**A.** inconclusive [inhibitor, partial curve]

**Q.** For `CC(=O)c1c(C)[nH]c(C(=O)Nc2nc(-c3ccc(-c4ccccc4)cc3)cs2)c1C`, which Potency is on record?
**A.** inconclusive [inhibitor, single point]

**Q.** `Cc1cc(C)cc(N(CC(=O)NCCSc2ccccn2)S(=O)(=O)c2ccccc2)c1` was tested. Which Potency did it give?
**A.** inconclusive [inhibitor, single point]

**Q.** With `Nc1nc2c(nc(Br)n2C2OC(CO)C(O)C2O)c(=O)[nH]1` (stereo not drawn) as the compound, how does the Potency read?
**A.** inactive

**Q.** `C/C(=N\NC(=O)c1ccc(NS(=O)(=O)c2cccs2)cc1)c1ccncc1` was tested. Which Potency did it give?
**A.** inconclusive [inhibitor, partial curve, poor fit]

**Q.** With `O=C(NCc1ccco1)C(c1ccco1)N(CCc1ccccc1)C(=O)Cn1nnc2ccccc21` (stereo not drawn) as the compound, how does the Potency read?
**A.** inconclusive [inhibitor, single point]

**Q.** How did the Potency turn out when `CCCc1cc(-c2[nH]ncc2-c2ccc3c(c2)OCCCO3)c(O)cc1O` was run?
**A.** inconclusive [inhibitor, single point]

**Q.** How did the Potency turn out when `COc1ccccc1/C=C/C(=O)OCc1nc2ccccc2c(=O)[nH]1` was run?
**A.** inconclusive [inhibitor, partial curve]

**Q.** With `CCC(C)Oc1cccc(OCCCCN2C(=O)NC(C)(C)C2=O)c1` (stereo not drawn) as the compound, how does the Potency read?
**A.** inactive

**Q.** For `CC(C)(C)c1nnc(NC(=O)Cc2ccccc2[N+](=O)[O-])s1`, which Potency is on record?
**A.** inconclusive [inhibitor, single point]

**Q.** How did the Potency turn out when `O=C(Oc1ccccc1)N1CCC2(CC1)CCN(c1ccccc1)CC2` was run?
**A.** inconclusive [inhibitor, single point]

**Q.** For `Cc1cc(C)n(CC(=O)N2c3ccccc3Sc3ccccc32)n1`, which Potency is on record?
**A.** inconclusive [inhibitor, single point]

**Q.** `Cn1c2ccccc2c2c(C(=O)N3CCN(c4ccc(F)cc4)CC3)cn(C3CCCC3)c(=O)c21` was tested. Which Potency did it give?
**A.** inconclusive [inhibitor, single point]

**Q.** For `Cc1cc(C)nc(NS(=O)(=O)c2ccc(N=Cc3c(C)[nH]n(-c4ccccc4)c3=O)cc2)n1`, which Potency is on record?
**A.** inactive

**Q.** For `COc1ccc(/C=C2\CC/C(=C\c3ccc(OC)c(OC)c3)C2=O)cc1OC`, which Potency is on record?
**A.** inactive

**Q.** For `CC1=C(C(=O)N2CCOCC2)C(c2ccsc2)C2=C(CCCC2=O)N1` (stereo not drawn), which Potency is on record?
**A.** inconclusive [inhibitor, partial curve]

**Q.** For `O=C(CSc1nnnn1C1CCCC1)N1CCOCC1`, which Potency is on record?
**A.** inconclusive [inhibitor, single point]

**Q.** `CC(C)c1nnc(NC(=O)CCS(=O)(=O)c2nc(-c3cccs3)cc(C(F)(F)F)n2)s1` was tested. Which Potency did it give?
**A.** inconclusive [inhibitor, partial curve]

**Q.** With `CSCCC(NC(=O)c1ccc(C)o1)C(=O)O` (stereo not drawn) as the compound, how does the Potency read?
**A.** active: 15.8 µM

**Q.** For `O=C(N/N=C/c1ccccc1OC(=O)N1CCOCC1)c1cccs1`, which Potency is on record?
**A.** inactive

**Q.** How did the Potency turn out when `CCc1ccc(NC(=O)C(=O)N/N=C(\C)CC(=O)Nc2ccc(OC)cc2)cc1` was run?
**A.** inconclusive [inhibitor, single point]

**Q.** `CN(C)S(=O)(=O)c1ccc(Cl)c(NC(=O)COC(=O)c2ccc(O)cc2)c1` was tested. Which Potency did it give?
**A.** inconclusive [inhibitor, partial curve]

**Q.** How did the Potency turn out when `COC(=O)[C@@]1(Cc2ccccc2)[C@H]2c3cc(C(=O)N(C)C)n(Cc4ccc(S(C)(=O)=O)cc4)c3C[C@H]2CN1C(=O)c1ccccc1` was run?
**A.** inactive

**Q.** Which Potency does the source give for `O=C1Nc2ccc([N+](=O)[O-])cc2OC1CCN1CCCC1` (stereo not drawn) here?
**A.** inconclusive [inhibitor, single point]

**Q.** How did the Potency turn out when `Cc1ccc(C)c(S(=O)(=O)N(C(=O)c2ccncc2)c2ccc(OC(=O)c3ccncc3)cc2)c1` was run?
**A.** inactive

**Q.** With `Cc1cccc(CN2C(=O)N/C(=C/c3cc(C)n(-c4ccccn4)c3C)C2=O)c1` as the compound, how does the Potency read?
**A.** inconclusive [inhibitor, single point]

**Q.** With `COc1ccccc1C1Nc2cccc3cccc(c23)N1` as the compound, how does the Potency read?
**A.** inconclusive [inhibitor, single point]

**Q.** Which Potency does the source give for `O=C(NC1CCCCC1)C(c1ccncc1)N(Cc1ccc2c(c1)OCO2)C(=O)C(F)(F)F` (stereo not drawn) here?
**A.** inconclusive [inhibitor, single point]

**Q.** `CCOC(=O)Cn1c(=O)n(CC(=O)OCC)c2ccccc21` was tested. Which Potency did it give?
**A.** inconclusive [inhibitor, single point]

**Q.** For `CN(C)CCN1C(=O)C(O)=C(C(=O)c2cc3ccccc3o2)C1c1cccc(Br)c1` (stereo not drawn), which Potency is on record?
**A.** inactive

**Q.** For `CC1Nc2nc(N(C)C)[nH]c(=O)c2NC1C` (stereo not drawn), which Potency is on record?
**A.** inconclusive [inhibitor, partial curve]

**Q.** How did the Potency turn out when `CC(C)OC(=O)c1cc2c(ccn2C)n1CC(=O)N1CCC(Cc2ccccc2)CC1` was run?
**A.** inconclusive [inhibitor, single point]

**Q.** How did the Potency turn out when `CN(C)CCN1C(=O)c2oc3ccc(F)cc3c(=O)c2C1c1ccncc1` (stereo not drawn) was run?
**A.** inconclusive [inhibitor, single point]

**Q.** `COc1ccc(CNc2nc(-c3ccccc3)nn2C(=O)c2ccc([N+](=O)[O-])cc2)cc1` was tested. Which Potency did it give?
**A.** inactive

**Q.** How did the Potency turn out when `O=C(Nc1nc(-c2ccc(S(=O)(=O)N3CCOCC3)cc2)cs1)c1ccccc1` was run?
**A.** inconclusive [inhibitor, single point]

**Q.** Which Potency does the source give for `Cc1cc(=O)oc2c(N)c(O)ccc12` here?
**A.** inactive

**Q.** Which Potency does the source give for `Cc1cc(C)cc(-n2nnc(C(=O)NCc3ccccc3Cl)c2N)c1` here?
**A.** inconclusive [inhibitor, single point]

**Q.** For `CCCCN(CCCC)S(=O)(=O)c1ccc(OC)c2ncccc12`, which Potency is on record?
**A.** inactive

**Q.** With `O=[N+]([O-])c1ccccc1-c1cc(-c2cc(Cl)ccc2O)n[nH]1` as the compound, how does the Potency read?
**A.** inactive

**Q.** With `O=C(CN1CC(c2ccccc2)CC1=O)N/N=C/c1cc(Br)ccc1O` (stereo not drawn) as the compound, how does the Potency read?
**A.** active: 25.1 µM

**Q.** For `Cc1c(Oc2ccc(C(F)(F)F)cc2[N+](=O)[O-])ccc2c3c(c(=O)oc12)CCC3`, which Potency is on record?
**A.** inconclusive [inhibitor, single point]

**Q.** For `O=C(NC(=S)N1CCN(c2nc(-c3ccccc3)cs2)CC1)c1cncc(Br)c1`, which Potency is on record?
**A.** inconclusive [inhibitor, single point]

**Q.** With `CCC(C)NC(=O)CNC(=O)Cn1c(C)cc2ccccc2c1=O` (stereo not drawn) as the compound, how does the Potency read?
**A.** inconclusive [inhibitor, single point]

**Q.** How did the Potency turn out when `COC(=O)c1ccc2c(c1)N(Cc1ccccc1F)C(=O)c1ccccc1S2=O` (stereo not drawn) was run?
**A.** inactive

**Q.** With `Cc1ccc2c(c1)sc(=NC(=O)c1cccs1)n2C` as the compound, how does the Potency read?
**A.** inconclusive [inhibitor, single point]

**Q.** Which Potency does the source give for `COc1ccc(CC(=O)n2c(CC#N)nc3ccccc32)cc1OC` here?
**A.** inactive

**Q.** For `COc1ccc(C(=S)N2CCC(C(N)=O)CC2)cc1Br`, which Potency is on record?
**A.** inconclusive [inhibitor, single point]

**Q.** With `CCOC(=O)C1CCN(C(=O)CCCOc2ccccc2)CC1` as the compound, how does the Potency read?
**A.** inconclusive [inhibitor, single point]

**Q.** With `CC1CCN(C(=O)CCNC(=O)Cn2cnc3sc4c(c3c2=O)CCCC4)CC1` as the compound, how does the Potency read?
**A.** inconclusive [inhibitor, single point]

**Q.** For `O=C(O)c1ccc(-c2ncc[nH]2)cc1`, which Potency is on record?
**A.** inconclusive [inhibitor, partial curve]

**Q.** For `C#CCOCCOCCOCCNc1nc(N2CCN(C(=O)Cn3cc(CC(C)O)nn3)CC2)nc(N2CCN(C(=O)[C@H](C)n3cc(CCCN=C(N)N)nn3)CC2)n1` (stereo partly drawn), which Potency is on record?
**A.** inactive

**Q.** With `CCN(Cc1ccccc1)C(=O)C1CCN(C/C(C)=C/c2ccccc2)CC1` as the compound, how does the Potency read?
**A.** inactive

**Q.** `CC(C)(C)c1nc(NC(=O)Nc2ccccc2)sc1Br` was tested. Which Potency did it give?
**A.** inconclusive [inhibitor, single point]

**Q.** Which Potency does the source give for `CCOC(=O)N1CCC2(CC1)C(C#N)=C(N)OC1=C2C(=O)CC(C)C1` (stereo not drawn) here?
**A.** inactive

**Q.** For `CCC(C)NCCOc1ccccc1C` (stereo not drawn), which Potency is on record?
**A.** inconclusive [inhibitor, single point]

**Q.** For `Cc1cc(C(=O)NCCN2C(=O)S/C(=C\c3cccs3)C2=O)ccc1[N+](=O)[O-]`, which Potency is on record?
**A.** inactive

**Q.** How did the Potency turn out when `CCCCCCCCC/C=C/CC1CC(=O)OC1=O` (stereo not drawn) was run?
**A.** active: 28.2 µM

**Q.** `CC(C)(C)NC(=O)CSc1nc(-c2ccc(F)cc2)cs1` was tested. Which Potency did it give?
**A.** inconclusive [inhibitor, partial curve, poor fit]

**Q.** For `Cc1sc2nc(CN(Cc3cccs3)C(=O)NC3CCCCC3)[nH]c(=O)c2c1C`, which Potency is on record?
**A.** inconclusive [inhibitor, single point]

**Q.** How did the Potency turn out when `O=C(NCc1ccccc1)C(c1ccc(O)cc1)N(C(=O)Cn1nnc(-c2cccs2)n1)c1ccc2c(c1)OCCO2` (stereo not drawn) was run?
**A.** inactive
